Laboratory results published in the RNAGym collection of RNA variant scans (doi:10.1093/nar/gkz1192).
Read counts are not given, so values of variants with three or more changes are uncertain.

B1: CPEB3 Ribozyme (parent)
chain: UAACAGGGGGCCACAGCAGAAGCGUUCACGUCGCAGCCCCUGUCAGAUUCUGGUGAAUCUGCGAAUUCUGCUGUAUAUCUC

Variants of: B1
Experiment: self-cleavage, relative activity (ratio to wild type); higher = more cleavage; in vitro, sequencing
Summary of the method: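 Libraries of CPEB3 self-cleaving ribozyme mutants came from rounds of error-prone PCR and carried barcodes, which DNA sequencing matched to variants. In vitro transcription used T7 RNA polymerase at 37°C for 5 hours, with a further 15 min in DNase I before EDTA stopped the reaction; the ribozymes cleaved during both steps. The RNA was reverse transcribed with template switching and sequenced on Illumina. Relative activity is the cleaved/total read fraction of a variant divided by that of the unmutated ribozyme, averaged over three batches with at least 5 reads.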

Variant	self-cleavage
A45G U58G U69A	0.21
A45G U60A A64U	0.19
A45G U60A C62U	0.13
A45G U60A U74A	1.22
A45G U60A U80C	0.6
A45G U60C U74C	1.21
A45G U67A U72A	0.23
A45G U67G U78C	0.16
A45G U69A U76A U80A	0.62
A45G U69C U72C	0.35
A45G U74C U78C	1.15
A45G U78C C81U	0.89
A45U A47G A56U U69C	0.15
A45U A47G G52A A57U U60C	0.09
A45U A47U U49C	0.09
A45U A47U U58A C68A	0.07
A45U A56G A64G U72C	0.33
A45U A56G A75G	0.27
A45U A56G C62U U72G C79G	0.1
A45U A56G U78C U80A	0.29
A45U A56G U80C	0.68

Variant	self-cleavage
A45U A56U A57G U69A	0.07
A45U A64G A75G	0.32
A45U A64G A75U	0.52
A45U A64U A75U	0.24
A45U A64U C68A	0.07
A45U A64U C79U	0.15
A45U A65G U69C	0.15
A45U A65G U80C	0.15
A45U A65U U72C C81A	0.27
A45U G46C A47G C68A U72C	0.11
A45U G52U A77U	0.75
A45U G53A A64G U72A	0.4
A45U G61A C71A	0.12
A45U U48A C68U A77U	0.08
A45U U48C G52A U67C	0.12
A45U U48C U58C	0.18
A45U U48C U58G	0.16
A45U U49C A56U U69A U74C	0.1
A45U U49C U72A U74C	0.09
A45U U49C U72C U74C	0.16
A45U U51A U60C	0.34

Variant	self-cleavage
A45U U51C A64G	0.25
A45U U51C U69A U72A	0.19
A45U U51C U74C	0.79
A45U U51G A56C G63A U72C A75G	0.09
A45U U54C U66C	0.2
A45U U58C A64G U67C	0.1
A45U U60A U67C U76C	0.1
A45U U60C U72C	0.18
A45U U67A U74G	0.29
A45U U72A A77G U80C	0.93
A45U U74A C79U	1.19
G46A A47G U48C U60A U80C	0.12
G46A A56G A64U A65U U74C	0.11
G46A A57G U72A	0.13
G46A A64G U74A	0.15
G46A G55A U80C	0.21
G46A U51A A57G	0.48
G46A U51C U67C	0.12
G46A U54C U72A A77G	0.08
G46A U54C U80C	0.27
G46A U60A U67C	0.14

Variant	self-cleavage
G46C A47G U58C	0.37
G46C A57G U67C U72C G73A	0.07
G46C U54C A77G	0.17
G46C U58A U60C U80G	0.11
G46U A47G U51A U54C G73U	0.17
G46U A47G U54C A57G U58C	0.17
G46U A47U A56G U69C	0.09
G46U A56G U58C U78C	0.13
G46U U66C C79U	0.1
A47C U58C U60C G73U	0.17
A47G A56C A57G U80C	0.16
A47G A56G A65G	0.14
A47G A56U C59U	0.1
A47G A56U U66C	0.09
A47G A57C G61U U72C	0.1
A47G A57G A64U U76C	0.29
A47G A57G A65G U67A U69C U78C	0.17
A47G A57G U58A	0.25
A47G A57G U69A U74C	0.31
A47G A57G U72C U78C	0.67
A47G A64G U66C A77G	0.21
